Data on 22 molecules can be found in paper PMC12136788.

First the molecules themselves.
T1: UNK ZnF1-3 (human, UniProt Q9C0B0 31-174)
T1 sequence: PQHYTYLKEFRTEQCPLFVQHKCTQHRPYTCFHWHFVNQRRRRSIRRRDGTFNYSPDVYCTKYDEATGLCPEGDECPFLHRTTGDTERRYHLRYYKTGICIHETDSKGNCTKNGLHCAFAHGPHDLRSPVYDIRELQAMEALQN

B1: chr19:21355511:21355512:+_ENSMUSG00000024750_ENSMUST00000025659|mus_mus|motif|central (ssRNA)
RNA: GGGAGUUCUACAGUCCGACGAUCUUUGUAGCUUUCUUCCUGCUUCCAAAAGUCAUGUCGAAAUUAAGGUGAAGUUUGACGGUGGUAGUAGACUGCCAGUCCUUUUCUGGUGUACCAUUUUUUUUUUUUUAAGUACAGGCACAUCAACAGAGGAUUGAGCAUCA
B2: chr7:150710151:150710152:-_ENSMUSG00000059119_ENSMUST00000072727|mus_hu|motif|central (ssRNA)
RNA: GGGAGUUCUACAGUCCGACGAUCCACAGCCCGCGGGACUAUCCGCUCACGGAAAAAGUGUCCAAUUUCAAAAUCAGAGGCGGAUGUGAAUUCAGAAUCUUCAUCCAGUGAUUCUCCAUCCCCGGAUGCUUUCAAUGGAUUGAACAACAGAGGAUUGAGCAUCA
B3: chr11:102337468:102337469:-_ENSMUSG00000034621_ENSMUST00000143842|mus_mus|motif|central (ssRNA)
RNA: GGGAGUUCUACAGUCCGACGAUCAAGGAAAACUACCUCCAGGAUGGCAGAGGCGGCCAGAGCAUGGCUAGAUCUACAACCGGACGAGAAGCAGCACAAAAAUGUUAAUACUGUUUUAUUUAAAUAUUUACACGGGCUGAAAGCCAACAGAGGAUUGAGCAUCA
B4: chr8:104063288:104063289:+_ENSG00000155097_ENST00000518738|hu_hu|motif|central (ssRNA)
RNA: GGGAGUUCUACAGUCCGACGAUCUAUAUAAGUAACCAAGUCCACUCCAUUAGCCAACAGAUUCUCUUGAACUUUGUCUUUGCGGUCUUCCAAUACAUCAGCCAUGUAUUGAGCUACUUUCUUAACCACUCCUUCUACAAAUGCCAACAGAGGAUUGAGCAUCA
B5: chr6:114281168:114281169:-_ENSG00000196591_ENST00000368632|hu_hu|hu_hu_hu_mus_True|8_68 (ssRNA)
RNA: GGGAGUUCUACAGUCCGACGAUCUUCCAUUUUUCGGUAUAAACCAUAAUUUAGCAGCAAGUUAUGAGUCAUGCGGAUUCUAUGAGGCUUCAUGGGAUGACCCUGGCCAUAAUAAUAAUUGCCAAUAUCACAGAUUCAGUAGUACAACAGAGGAUUGAGCAUCA
B6: chr22:32879901:32879902:+_ENSG00000100225_ENST00000397426|hu_mus|hu_hu_hu_mus_False|8_48 (ssRNA)
RNA: GGGAGUUCUACAGUCCGACGAUCCUCUUCCAUACUCAUGGCAUCCUGAAUUGACUCAGCUUCAACAUUUUGACUAGGCCCUUCCAUACUGUCGUCAGUCCAGGCAUCAAAUGGGGUGGCCUGUCCUUGGAAUGAAUCAGUCCCCAACAGAGGAUUGAGCAUCA
B7: chr3:107766082:107766083:-_ENSG00000196776_ENST00000355354|hu_mus|FALSE|FALSE (ssRNA)
RNA: GGGAGUUCUACAGUCCGACGAUCCUUCCAGCUGUGAGUCGUGAAGACCUGGUGCUUAGACAACUGUAUUCUUCCAUUUCUGACUUCCAAGUUACAGUCCGUCACUUCCCUUCACCUAUUCCUAGGAGGUUGGAUAGUCCUCUGCAACAGAGGAUUGAGCAUCA
B8: chr1:100342015:100342016:+_ENSG00000162688_ENST00000361915|hu_mus|motif|central (ssRNA)
RNA: GGGAGUUCUACAGUCCGACGAUCGGCUUCCUCUGCGGAUAAGGCCAUUUCUCCAAAGGGGAAAGUAAAAUACCUGGUAACGGAAGGAUACUUCCUGGUGACAGGUCCUAGUUUAGGGCCAUGGCCUGCCAGUCGUUCAUAAAACAACAGAGGAUUGAGCAUCA
B9: chr10:75239141:75239142:-_ENSG00000107758_ENST00000394829|hu_mus|FALSE|FALSE (ssRNA)
RNA: GGGAGUUCUACAGUCCGACGAUCUACUUCUAUCAUGGUUUUCUCCCGCCGAAGUAUGGCAGCACCCUCAUUGAUAAUUCUUAGUGCAAUUUCUUCAUCCACCCGCCCUUCUUUUACCAAGUGGUUCUUCAGAACAUCAACCCUCAACAGAGGAUUGAGCAUCA
B10: chr1:66463027:66463028:+_ENSMUSG00000015222_ENSMUST00000114013|mus_hu|FALSE|FALSE (ssRNA)
RNA: GGGAGUUCUACAGUCCGACGAUCUUUUCUUUCAGGAGUGGAAAUUCUGCCUCUCCCGGUUUUAAAAGGCUUUUCUUUUCUAUGUUUCUCAAGAGAUGAUCUCCGAGCUUCCUUUUCAGCUUUCUCCUCUUUAGGAAUAGUUUCCAACAGAGGAUUGAGCAUCA
B11: chr7:54825262:54825263:-_ENSG00000132432_ENST00000352861|hu_hu|hu_hu_hu_mus_False|28_58 (ssRNA)
RNA: GGGAGUUCUACAGUCCGACGAUCCUGCCGGCUGGGCUCCACAAACUGCAUUACCUGAUCCAUGUUUGUUGGAUGGCACACCUAAAACGUAGAGACACGUAGCUCAGGGAGCUUGCUAGCCCAACGGAACCGGAAGCUGGCAACCAACAGAGGAUUGAGCAUCA
B12: 35048147_35056347_353_5pUTR_ENSMUSG00000026878_ENSMUST00000028238|mouse|control|control (ssRNA)
RNA: GGGAGUUCUACAGUCCGACGAUCAAUAUACUUAAAGAUGUAAGAGUAGUUGUACGGUGCAGUUGCCAUGGUGGCACUGGGGGGUUGCUGGUGGCUGGGCAGCUUUCCGGACGGGAGGGGGACGUCAGGACGAGGAAGCGGAGGCAACAGAGGAUUGAGCAUCA
B13: chr16:94915998:94915999:+_ENSMUSG00000022897_ENSMUST00000023614|mus_hu|motif|central (ssRNA)
RNA: GGGAGUUCUACAGUCCGACGAUCUUUUGAUAUUGCUAUACUCAAGAUGAUAUCCUUUUAUUCACUGUAAACCUUUAUGAACGGCCAAGUUCAAAAAAAUCAUCCACAGGCUUGACAGUUAAUUACAAAAUAAAUAUGGAUUUCCAACAGAGGAUUGAGCAUCA
B14: chr13:37614821:37614822:-_ENSG00000102710_ENST00000475892|hu_mus|motif|central (ssRNA)
RNA: GGGAGUUCUACAGUCCGACGAUCACUUUGGUAACCAGGAGACUUCAUAUUACUGGACUGCCUAUAGUCACGUAUUUCUGCGGUCACACAUCCACAAUGAAAAAUAUUAACCUGUGAUUUUUCAAGGAGAUCCACCAAAAUAGGCAACAGAGGAUUGAGCAUCA
B15: chr19:14671312:14671313:-_ENSMUSG00000024642_ENSMUST00000052011|perfect_dup|FALSE|FALSE (ssRNA)
RNA: GGGAGUUCUACAGUCCGACGAUCAGCCUGUAAAAACUGAAACUCUUCCUUAAUCCGAUCACAGGAUUCGGAAAUUGUAAAUUUAAAGGGUUGAGCAGGCUGAUGCGGUGCUGGGUGUCUGGUCUGCGGGUACAUCUUGCUCAGCAACAGAGGAUUGAGCAUCA
B16: 131127965_131128085_1752_3pUTR_ENSMUSG00000048911_ENSMUST00000059372|mouse|control|control (ssRNA)
RNA: GGGAGUUCUACAGUCCGACGAUCUGCUUUACACGGCGAAUUUACACUGUUCACAAAGCCUAUUGGAGGCAGUUAUCUCUAGAAAAGUUGGACAGAAAGAGCCAAAGAGCAGCAUGCAUUUUCCCUAUAAAAACCCCUUCAGUUCAACAGAGGAUUGAGCAUCA
B17: chr6:41757443:41757444:+_ENSG00000214736_ENST00000398881|hu_mus|hu_hu_hu_mus_False|8_18 (ssRNA)
RNA: GGGAGUUCUACAGUCCGACGAUCGAACCGUGCAGAGGCAACAUCUCAGCCGACACUGGGGGAUGGGGGGGCAGUGGGGGGGGGUUCAGGCAAGGAGAGGGAGUCAACUUCAGCUGCUCAAACUUCAGCUGCCAUCAGUCACAGCAACAGAGGAUUGAGCAUCA
B18: 2906631_2906918_121_3pUTR_ENSG00000129757_ENST00000380725|human|control|control (ssRNA)
RNA: GGGAGUUCUACAGUCCGACGAUCAGGCGCUGGUGCGCACUAGUACUGGGAAGGUCCCACGGGCGACAAGACGCUCCAUCGUGGAUGUGCUGGCUGUCCGGUGGUGGACUCUUCUGCGUCGGGUUCGCCUGUCUCGUCCGGACGCAACAGAGGAUUGAGCAUCA
B19: chr12:39763582:39763583:-_ENSG00000139116_ENST00000544797|hu_mus|hu_hu_hu_mus_False|8_68 (ssRNA)
RNA: GGGAGUUCUACAGUCCGACGAUCCUCUAGGAACUGGGCAUUCACUUUGAAUUCAGGAGGGGGCAGCCCAUUUUUAAUCGCUGAGGUCUUUUUCUCAUCAAUACUCUUGAACAGGUGUCUAACAGCACGAGAAAUAAUGCCCUGCAACAGAGGAUUGAGCAUCA
B20: chr2:144966258:144966259:-_ENSG00000121964_ENST00000344850|hu_mus|motif|central (ssRNA)
RNA: GGGAGUUCUACAGUCCGACGAUCUGUGCGUGCUCUCCAGUGCCAUUUCUUUGCAGGAAGAGUGUACAACACGCAGUCAUCGGAUUCUUCUCGGAGCAGCUCUACCAGCUGUCGAUGGGAGCCUCCAUAAAAUGCCUCGAUGAUCAACAGAGGAUUGAGCAUCA
B21: chr1:235505951:235505952:+_ENSG00000152904_ENST00000391855|hu_hu|motif|central (ssRNA)
RNA: GGGAGUUCUACAGUCCGACGAUCUUUAUAGGCUUUAGCUUCAAGCUCUUUAAGGGUAUUACGAGUGUAUUCAAAAGAACCGGCAUCCUCAAGAUAAUGUACACAGUAUUUUUUUAUAUCUAUGUUUUCUGUUCUCUGGCGCAACAACAGAGGAUUGAGCAUCA
B22: chr4:136892031:136892032:-_ENSMUSG00000006699_ENSMUST00000030417|mus_mus|FALSE|FALSE (ssRNA)
RNA: GGGAGUUCUACAGUCCGACGAUCCACACUUAAUUGUCUGCAUUUCGGAAACAGUUUUGUAUCCACUUUUAAUAUUUCAAAUUAGAUCUUGUCCUCAGCUUCUCCGCCGGGGCGUUGGCAGCACUGCGCGGGGCCUCCUCGGCUCAACAGAGGAUUGAGCAUCA

Some of the results follow.

The assay deals with T1, UNK ZnF1-3. Briefly: nsRBNS (natural sequence RNA bind-n-seq); RBNS binding buffer (assumed for nsRBNS): 25 mM Tris pH 7.5, 150 mM KCl, 3 mM MgCl2, 0.01% Triton X-100, 500 ug/ml BSA, 20 U/ml SUPERase-In, 4 C; UNK is unkempt and MSI1 is Musashi-1; names of the RNAs are library labels; protein concentration not given here; high values mean tight binding.
For the molecule B1, the binding signal turned out to be 0.527 enrichment R. On to B2, for which the binding signal was 0.87 enrichment R. In the case of B3, the binding signal was determined as 2.94 enrichment R.

In turn, B4 gave a binding signal of 1.03 enrichment R. In turn, B5 came in with a binding signal of 1.26 enrichment R. Consider B6, for which the binding signal came out at 0.95 enrichment R.

B7 displayed a binding signal of 0.792 enrichment R. The value for B8 was 0.704 enrichment R. To B9 belongs 0.831 enrichment R; to B10, 0.4 enrichment R. To B11 belongs 0.935 enrichment R; to B12, 1.83 enrichment R. Molecule B13 registered a binding signal of 0.828 enrichment R. Regarding B14, the binding signal was determined as 1.22 enrichment R. To B15 belongs 1.96 enrichment R; to B16, 1.67 enrichment R. Consider B17, for which the binding signal was found to be 2.86 enrichment R. To B18 belongs 0.5 enrichment R; to B19, 1.79 enrichment R. In turn, B20 gave a binding signal of 0.686 enrichment R. To B21 belongs 0.765 enrichment R; to B22, 0.567 enrichment R.
